Assay results from article PMC4242493.
Some of the results follow. The list includes weakly bound sequences.

biological target: MaxL homodimer (UniProt P61244); experiment: universal protein-binding microarray (PBM); details: PBS-based mixture, 10 nM His-tagged protein dimer, 2% milk, 200 ng/uL BSA, 50 ng/uL salmon testes DNA, 0.02% TX-100; detection with Alexa 488 anti-His …; high values mean tight binding; most listed sequences are background and not binding sites; double strand, one strand shown
Sequence of UniProt P61244 (P61244 whole entry): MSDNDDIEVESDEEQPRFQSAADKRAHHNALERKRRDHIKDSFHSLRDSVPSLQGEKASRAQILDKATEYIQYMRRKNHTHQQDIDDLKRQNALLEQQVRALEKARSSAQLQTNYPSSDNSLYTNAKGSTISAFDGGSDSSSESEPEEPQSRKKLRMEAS

Sequence	binding signal (normalized occupancy)
CTCAGGAC	0.0709
CGCCGGGA	0.0678
GCGTACCC	0.0808
ACGGGCAA	0.071
ACCTACCT	0.0733
CTGTCACC	0.0808
CGACCAGC	0.0737
AATGCGGG	0.0799
ACCTTCAT	0.0749
TCTGCTAA	0.0734
AGGGTGCC	0.0782
GATTCCAA	0.0723
ATTAACCA	0.0764
CCTAACAA	0.0755
CAGATTCA	0.0717
ATACGTAT	0.0856
AAACCGCT	0.0732
ACCCGGCG	0.0738
ACAACCCT	0.0791
CCCAAAAG	0.0645
GATGATGC	0.0776
AGAAGTTA	0.0729
AATGTGAA	0.0782
AGGTTCGA	0.0713
GCTGCACA	0.0768

Sequence	binding signal (normalized occupancy)
CAAACTCC	0.0727
CATTTAGC	0.0759
TGGAGACA	0.0748
CGCCCAGC	0.0706
GTTGCCTA	0.0755
GCGGACAC	0.0821
TAAAATAA	0.0771
ATCTCCAT	0.0864
AAGAGGGC	0.0738
CGTGCCTC	0.0857
TCTCGGCA	0.0689
TCTCACAA	0.0786
CTCAAAGC	0.0666
ATAGAAAC	0.0799
GGTCCCCA	0.0707
GGCTGACA	0.076
GACGAAAA	0.0714
AATTCAGA	0.0688
AGCTACAT	0.0756
AGTGACAG	0.0692
CACTTTCG	0.0732
GCAGACAA	0.0765
CCGATGCA	0.0794
GACTTGCA	0.0709
AACCCTAT	0.0781

Sequence	binding signal (normalized occupancy)
AACATTGT	0.0788
ACCGATGC	0.0751
AGTGCAAT	0.0754
CGAGCTCG	0.0651
CTACATCA	0.0774
ACCAGGAA	0.0703
CTCCTGAC	0.077
ACGCGCGG	0.0929
GTCAGAAA	0.0761
CTCCCGTC	0.0706
GAATATTC	0.0728
GGGTAGAC	0.0722
ATTCCTGA	0.075
ACACCAAG	0.0798
AGAATCTG	0.0763
AAAAGAAG	0.0697
GACGGCTC	0.0688
CTGTCGGA	0.073
CTATGCAG	0.0757
ACAACTAC	0.0742
AGTATTTA	0.0747
ATCGCGCC	0.0698
CCACTCGC	0.0812
ACGGGGTG	0.0805
CGTTCTTC	0.0759

Sequence	binding signal (normalized occupancy)
TACTCCGA	0.0777
CCCTAAGA	0.0711
GCTCTAAC	0.0729
CCGGCAAA	0.067
AAGACTAT	0.0779
ACTACTCT	0.0769
GCCGGGAC	0.0616
ACCTCACT	0.0781
AAATCGCG	0.0713
CCGCACCG	0.0752
ACTGGTGG	0.0746
ACAAAACC	0.0746
CCCAAGAG	0.0686
AGCCGCGA	0.0669
AGAGGCAG	0.075
ACACCGTC	0.0702
ATGAAGGA	0.0797
TAAGTTAA	0.0772
CCTCATTA	0.0836
TAGCCTCA	0.0748
ATAATAAC	0.082
GAGACCCA	0.0745
ACAGGGAA	0.0743
GACCGGCA	0.0692
ACGTAAGG	0.073

Sequence	binding signal (normalized occupancy)
AGGGGAGG	0.0793
GCTAGTGA	0.0759
GTTTATAA	0.0757
GTTCCACA	0.0784
CGCATGCG	0.133
CTGACAAA	0.0791
ACTGACGC	0.0698
ACATGCTG	0.124
GTGACACA	0.0783
ACGTTGTG	0.0787
ACATGGCG	0.098
CCAAAAAG	0.0702
ACCTCAGA	0.0784
CCGCCCGC	0.0678
ATCGCCCG	0.073
TTTGAAAA	0.0717
CCAGGGCC	0.0636
CCAATGTC	0.0732
CGCGACTC	0.0699
GCAAGCAC	0.0718
CTGCGAAG	0.0641
GACATAGC	0.077
ATGCGACG	0.0739
AGAGTACC	0.0751
CGCATGTC	0.105

Sequence	binding signal (normalized occupancy)
CGCTTCAG	0.0737
CGGACAGA	0.0651
CAATAAGC	0.0705
AGGACGCA	0.0749
GCTTAACC	0.0694
ATGCGTCG	0.0835
TCGTTAAA	0.0773
CGGGACCC	0.076
AGCGAACC	0.0722
AGGCTGTC	0.0715
CTGACACC	0.0794
CGCCAACA	0.0741
CATTATCC	0.0847
ACCAGCCC	0.0728
CTGTTAGA	0.0767
GTGACTAA	0.0791
GCTGGCAA	0.0704
CAACAGGC	0.0712
AAGCAGTG	0.0725
CTGCCAAA	0.0702
CATCCTCG	0.0772
ACTCTACC	0.0729
AGAGAAGC	0.0702
ATACTCTG	0.0814
AAGCGAAC	0.0692

Sequence	binding signal (normalized occupancy)
AGAATTCG	0.073
GCTCATTA	0.0768
ACACCCGG	0.0767
ATGTTGTA	0.082
CAAACAGA	0.0744
ATTGAGGA	0.0797
GGTACCGA	0.0679
TCATGGGA	0.0807
CCTTCCCC	0.0759
AACGGGCC	0.0682
ATTTCTGC	0.0742
GGATCCAC	0.0765
ACAAATAC	0.0725
GATGCGGA	0.0791
GCCACTGA	0.0687
AATTCACA	0.0775
CCTCATCC	0.0759
AACTTCCG	0.0736
GGCCGGGA	0.0668
GGAAGCCC	0.0691
CTATAATA	0.0793
AAGATCTC	0.0783
GCGGGAAC	0.0701
GTTAGGTA	0.0755
TAGTTAGA	0.0768

Sequence	binding signal (normalized occupancy)
CGGAACCA	0.0712
AGCAGGCC	0.0727
GGCTATTA	0.0759
CCACCCGA	0.0767
CGCCCGAC	0.0679
AGCTATTC	0.0709
CCAAATGG	0.0756
GCTTTCCC	0.0669
ATTAGCAC	0.076
CCCGAGAC	0.0697
CGCCGTAC	0.0716
GCAGCCCA	0.0744
CCAATTTA	0.0781
TCGACCCA	0.0726
AAAGTTTC	0.0721
GGAGCACA	0.0826
ACGCTACC	0.079
CAAAATCG	0.0693
ACAGTCTA	0.0732
CTAACGAA	0.0676
CGGCGAGC	0.069
CTAGGCTC	0.0662
AATTCAGT	0.0721
AGGTGCCA	0.0807
GTACAGAA	0.0732

Sequence	binding signal (normalized occupancy)
CTCAAACA	0.0768
AAGTTGAT	0.0742
CCCTTAGA	0.0721
CCCCCAGG	0.0775
CGATTACA	0.0781
CAAATTAG	0.076
GTACCTAC	0.0731
ATTCAGAG	0.0746
GTACTGAA	0.0753
ACCTATGC	0.0814
GCCTTGAA	0.0743
AGTTGCTA	0.0827
CGCGGAAA	0.0721
AGGGTCTG	0.0713
CGTTCTGA	0.0731
CACTTCGC	0.0739
AGTTCTAT	0.0745
AGGCGTGA	0.0829
ACGAAGTA	0.0701
